Assay results from ChEMBL document CHEMBL1157539, “Thousands of chemical starting points for antimalarial lead identification” (Nature, 2010).
In all, about 13,000 compounds were measured (“IFI”: median about 4, highest 2% from about 17 on). The list shows a part of the results.

Experiment: GSK_TCMDC: Inhibition Frequency Index (IFI). The number of non-kinase HTS assays where a compound showed > 50 % inhibition, expressed as a percentage of the number of such assays in which the compound was tested (-0 is zero)
Format: functional
Cc1[nH]c(C)c(-c2ccc(-c3ccc(OC(F)(F)F)cc3)cc2)c(=O)c1Br showed an IFI of 2.73%. With Cn1nc(C(F)(F)F)c(-c2ccc(Br)cc2)c1NC(=O)Nc1ccc(F)cc1F the IFI was 5.43%. Compound Cn1cnc2nc(NCCc3ccccc3)nc(NCc3cccc4ccccc34)c21 has an IFI of 13.1%. Work on CCNc1cc(C(=O)N[C@@H](Cc2ccccc2)[C@H](O)CNCCc2cccc(C(F)(F)F)c2)cc(N2CCCC2=O)c1 yielded an IFI of 8.4%. COc1cccc(C(=O)Nc2ccc(-c3nc4ccccc4[nH]3)cc2)c1 showed an IFI of 3.51%. Work on O=C(Nc1ccccc1F)NC1CCN(c2ccnc(Nc3ccc(F)cc3)n2)C1 (stereo not drawn) yielded an IFI of 1.54%. CCC(C)NS(=O)(=O)c1ccc2nc(Nc3ccc(C)cc3)n(C3CCCCC3C)c2c1 (stereo not drawn) gave an IFI of 3.7%. CC(C)C[C@H](NC(=O)c1ccc(OCCN2CCOCC2)cc1)C(=O)N[C@H](/C=N/N1CCNC1=O)CCc1ccccc1 gave an IFI of 2.75%. O=C(Nc1ccc2c(c1)CCN(C1CCC1)CC2)c1cn(-c2ccccc2)nc1-c1ccccc1 gave an IFI of 5.26%. Work on CN1CCC(c2nc(N)no2)C1 (stereo not drawn) yielded an IFI of 3.68%. For Cc1ccc(NC(C)C(=O)Nc2ccccc2)cc1S(=O)(=O)N1CCCCCC1 (stereo not drawn), the IFI was 0%. Work on Cc1ccc(NC(=O)C2CCC2)cc1-c1ccc(C(=O)NCC2CC2)cc1 yielded an IFI of 0.71%. Work on O=C(NC1CC1)c1ccc(N2CCC(Cc3ccccc3)CC2)nc1 yielded an IFI of 6.67%. With Cc1cc(-c2cccc(CNCc3ccc(F)cc3)c2)ccc1S(=O)(=O)NCCN1CCCC1 the IFI was 12.9%. With Cc1cccc(-c2nc(Nc3ccncc3)c3ccc([N+](=O)[O-])cc3n2)n1 the IFI was 2.31%. Work on O=C(c1ccc(Cl)cc1Cl)N1CCCC(C(F)(F)F)C1 (stereo not drawn) yielded an IFI of 3.45%. Work on Cc1noc(C)c1-c1ccc(C(=C2CCCCCCC2)c2ccc(O)cc2)cc1 yielded an IFI of 7.09%. For CC(Oc1ccc(Cl)cc1)C(=O)Nc1cc(C(F)(F)F)ccc1-n1cncn1 (stereo not drawn), the IFI was 5.77%. CC(=O)c1c(Cc2ccccc2Cl)c[nH]c1C gave an IFI of 1.23%. With O=C(CCc1c[nH]cn1)Nc1cccc(-c2cccc(-c3nc4cc(C(F)(F)F)ccc4[nH]3)c2)c1 the IFI was 5.26%. With N#Cc1cccc(NC(=O)c2ccc(S(=O)(=O)NCC3CCCN3CC3CCCCC3)cc2)c1 (stereo not drawn) the IFI was 2.67%. CCCCCCCCn1c2c(c(=N)c3c1CCC3)CCC2 gave an IFI of 9.59%. Compound Cn1nc(-c2ccc(NC(=O)Nc3cc(C(F)(F)F)ccc3F)cc2)c2cnc(NCCc3c[nH]cn3)nc21 has an IFI of 8.66%. For O=C1CCCN1CCCNCc1cccc(-c2ccc(-c3nc4ccccc4[nH]3)s2)c1, the IFI was 0%. COc1cc(-c2nc3ccc(N4CCN(C)CC4)cc3[nH]2)cc(OC)c1OC showed an IFI of 1.32%. Work on CCCNC[C@@H](O)[C@H](Cc1ccccc1)NC(=O)c1cc2c3c(c1)c(CC)cn3CCS(=O)(=O)N2C yielded an IFI of 1.59%. Work on O=C(/C=C/c1ccccc1O)NCCCCCN1CCC(c2c[nH]c3ccccc23)CC1 yielded an IFI of 4.38%. For CC(C)NCC(O)COc1ccc(Cc2ccc(OCC(O)CNC(C)C)cc2)cc1 (stereo not drawn), the IFI was 0.75%. COc1ccc2nc3cc(Cl)ccc3c(NCCO)c2c1 gave an IFI of 1.4%. COc1ccc(-n2ccnc2SCC(=O)Nc2cc(C)ccc2C)c(OC)c1 showed an IFI of 5.63%. With Cc1cc(Cl)ccc1N(Cc1ccccc1)c1ccnc(Cl)n1 the IFI was 2.26%. O=c1cc(NCCCNCc2scc3c(Cl)cc(C(F)(F)F)nc23)[nH]c2ccccc12 gave an IFI of 7.91%. Work on Cc1nc2ccc3ccc(CNc4ccc(C(=O)CC(CCC(=O)O)C(=O)O)cc4)cc3c2c(=O)[nH]1 (stereo not drawn) yielded an IFI of 1.43%. CCOc1cc(C(=O)Nc2ccc3nc(N(CC)CC)cc(C)c3c2)cc(OCC)c1OCC showed an IFI of 0.77%. Compound COc1ccc(-c2cc(-c3ccc(S(C)(=O)=O)cc3)cnc2N)cn1 has an IFI of -0%. In the case of CCNC(=O)c1cc(S(=O)(=O)N2CCN(c3ccccn3)CC2)cs1, the IFI is reported as 2.13%. Work on COc1ccccc1CNC(=O)C(=O)Nc1c(-c2ccccc2)[nH]c2ccccc12 yielded an IFI of 2.56%. For O=C(Nc1nc2cc(S(=O)(=O)NCCc3cccc(F)c3)ccc2n1CCCn1ccnc1)c1ccc(Cl)cc1, the IFI was 1.43%. For Cc1c(Cn2ncc(N3CC(C)NC(C)C3)c(Cl)c2=O)cccc1NC(=O)Nc1ccc(-c2ccccc2)cc1 (stereo not drawn), the IFI was 8.84%. With COc1cccc2cc(C(=O)N[C@@H](CC(C)C)C(=O)N[C@H](/C=N/NC(=O)OC(C)(C)C)CC(=O)OC(C)(C)C)oc12 the IFI was 2.75%. For CCC(CCON1C(N)=NC(N)=NC1(C)C)c1ccc(Cl)cc1 (stereo not drawn), the IFI was 5.97%. Work on CCC(C)NC(=O)Nc1ccc(-c2cccc(-c3nc4cc(C(F)(F)F)ccc4[nH]3)c2)cc1 (stereo not drawn) yielded an IFI of 9.71%. With COc1ccc(CN(C)CCCc2ccc(NC(=O)c3cc4ccccc4[nH]3)cc2)cc1OC the IFI was 12.7%. For CCN(CC)CCCN(CCCN(CC)CC)c1cc(C)nc(Nc2ccc3cc(Br)ccc3c2)n1, the IFI was 4.35%. With O=C(/C=C/c1ccc(Cl)c(Cl)c1)NCCCCCCN1CCCN(C(=O)Nc2ccc(Cl)c(C(F)(F)F)c2)CC1 the IFI was 11.3%. Compound N#Cc1ccc(S(=O)(=O)N2C(c3cccc([N+](=O)[O-])c3)C(C(=O)c3ccccc3)N(C3CCCCC3)C2c2cccc([N+](=O)[O-])c2)cc1 (stereo not drawn) has an IFI of 0.74%. O=C(NCc1ccccc1)c1ncn(CCCN2CCC(N3CCCC3)CC2)c1-c1ccc(Cl)c(Cl)c1 gave an IFI of 2.14%. For CCCCc1ccc(C(=O)Nc2ccc3nc(N4CCN(CC)CC4)cc(C)c3c2)cc1, the IFI was 7.89%. In the case of O=C(Cc1cccc(Cl)c1)N1CCc2cc3nccc(N4CCN5CCC[C@H]5C4)c3cc21, the IFI is reported as -0%. With Cc1nnsc1C(=O)Nc1cccc(-c2cccc(-c3nc4ccccc4[nH]3)c2)c1 the IFI was 4.55%. For COc1ccc2c(=NN=Cc3ccncc3)cc(C)[nH]c2c1, the IFI was 1.42%. For N#Cc1cccc(/C=C/C(=O)NC2CCC(CCN3CCc4ccc(-c5cnccn5)cc4CC3)CC2)c1 (stereo not drawn), the IFI was 3.91%. Clc1ccc(CNc2nc(NCCc3c[nH]cn3)nc(NC3CCCCC3)n2)cc1 showed an IFI of 1.47%. With COc1ccc2nccc([C@@H](O)CN3CCC(NC(=O)c4cc5c(Cl)cc(Cl)cc5[nH]4)CC3)c2c1 the IFI was 5.15%. For CC1(C)NC(N)=NC(=N)N1OCCCOc1cc(Cl)cc(Cl)c1, the IFI was 3.5%. Oc1ccccc1CNC1CCCCC1NCc1ccccc1O (stereo not drawn) showed an IFI of 4.51%. With COc1ccc(-c2nc(NC(=O)CS(=O)(=O)c3ccc(OC)cc3)sc2C)cc1 the IFI was 5.63%. CCOC(=O)CNCC(=O)c1ccc(OCc2ccccc2)cc1 gave an IFI of 2.84%.
